This passage reports TGI and GI50 results from PubChem BioAssay (NCI).

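Results reflect a 48-hour exposure of cells in 96-well plates to compound at five concentrations. At the GI50, growth is halved.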 A number of entries come with more than one value. The other results are left out here. An entry can have further records. The tests behind the records often covered other concentration ranges, which the source does not state; some values may only mark the edge of a range.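 TGI: total growth inhibition.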

Test systems include SNB-75 CNS; SNB-19 CNS; HL-60(TB) leukemia; SK-OV-3 ovarian; SK-MEL-2 melanoma; A498 renal; HCT-15 colon; OVCAR-3 ovarian; HT29 colon; K-562 leukemia; HCC-2998 colon; SK-MEL-5 melanoma; HS 578T breast; NCI-H460 lung; HCT-116 colon; SF-295 CNS.
Holding throughout (test): inhibition of tumour cell growth, NCI panel, 48 h

Consider `COc1cccc2c1C(=O)c1c(O)c3c(c(O)c1C2=O)C[C@@](O)(C(C)=O)C[C@@H]3OC1OC(C)C(O)C(N)C1Br` (some centres not stated), for which the TGI is 106 nM and 1.15 µM in the assay on SNB-75 CNS; 2.92 µM and 201 nM in the assay with SNB-19 CNS; 657 nM and 53 nM in the assay on HL-60(TB) leukemia.
Regarding `COc1cc(/C=C(\C#N)C(N)=O)cc(Br)c1O`, the GI50 in the assay on SNB-75 CNS is 936 nM and > 100 µM.
Turning to `COc1cc2c(c(OC)c1OC)-c1ccc(OC)c(=O)cc1[C@@H](NC(=O)c1ccccc1)CC2`, the TGI in the assay on SK-OV-3 ovarian is 24.3 nM and 2.72 µM; in the assay with SK-MEL-2 melanoma, 6.35 nM and 6.65 µM; with A498 renal, 30 µM and 2.69 µM; with HCT-15 colon, 211 nM and > 100 µM; in the assay with OVCAR-3 ovarian, < 3 nM and 42.7 nM; in the assay on HT29 colon, 20.8 nM and 855 nM. The TGI with K-562 leukemia is 3.43 µM and > 100 µM; with HCC-2998 colon it was 9.81 nM and 763 nM; in the assay on SK-MEL-5 melanoma it was 15.2 nM and 672 nM; with HS 578T breast it was < 3 nM and 1.09 µM; with NCI-H460 lung, 45.2 nM [1 test] and 14 µM [mean of 5 tests]; in the assay on HCT-116 colon, 60.4 nM and 2.31 µM. The TGI with SF-295 CNS was 15.9 nM and 705 nM.
